Common to all, as to assay type: cell-based
One experiment has as its target mGAT1 (Mus musculus, UniProt P31648). As to the kind of experiment: [3H]GABA uptake inhibition, stable CHO cells. Details: gene Slc6a1; full-length ORF in pcDNA3; no tag mentioned.
In another experiment the target is T1, mGAT2 (Mus musculus, UniProt P31649).
T1 sequence (P31649 1-602): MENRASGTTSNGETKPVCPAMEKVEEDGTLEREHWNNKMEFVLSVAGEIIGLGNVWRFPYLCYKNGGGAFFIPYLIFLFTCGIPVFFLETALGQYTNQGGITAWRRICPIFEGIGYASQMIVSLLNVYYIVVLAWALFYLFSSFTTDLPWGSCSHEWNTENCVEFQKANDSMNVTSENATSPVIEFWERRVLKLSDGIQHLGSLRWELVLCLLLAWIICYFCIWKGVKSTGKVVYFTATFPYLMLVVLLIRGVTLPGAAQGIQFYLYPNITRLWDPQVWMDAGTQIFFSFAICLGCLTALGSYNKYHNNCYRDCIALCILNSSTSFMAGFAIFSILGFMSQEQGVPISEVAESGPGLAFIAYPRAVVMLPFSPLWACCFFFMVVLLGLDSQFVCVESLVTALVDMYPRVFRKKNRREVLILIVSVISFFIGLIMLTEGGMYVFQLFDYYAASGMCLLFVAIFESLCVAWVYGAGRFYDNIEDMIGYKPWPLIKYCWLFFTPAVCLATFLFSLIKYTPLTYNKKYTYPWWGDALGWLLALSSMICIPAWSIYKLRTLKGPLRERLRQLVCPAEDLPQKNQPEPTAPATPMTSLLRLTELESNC
Nature of the experiment: [3H]GABA uptake inhibition, stable CHO cells. Details: gene Slc6a13; RIKEN FANTOM cDNA in pcDNA3; no tag mentioned.

A further experiment concerns the target T2, mGAT3 (Mus musculus, UniProt P31650).
T2 sequence (P31650 1-627): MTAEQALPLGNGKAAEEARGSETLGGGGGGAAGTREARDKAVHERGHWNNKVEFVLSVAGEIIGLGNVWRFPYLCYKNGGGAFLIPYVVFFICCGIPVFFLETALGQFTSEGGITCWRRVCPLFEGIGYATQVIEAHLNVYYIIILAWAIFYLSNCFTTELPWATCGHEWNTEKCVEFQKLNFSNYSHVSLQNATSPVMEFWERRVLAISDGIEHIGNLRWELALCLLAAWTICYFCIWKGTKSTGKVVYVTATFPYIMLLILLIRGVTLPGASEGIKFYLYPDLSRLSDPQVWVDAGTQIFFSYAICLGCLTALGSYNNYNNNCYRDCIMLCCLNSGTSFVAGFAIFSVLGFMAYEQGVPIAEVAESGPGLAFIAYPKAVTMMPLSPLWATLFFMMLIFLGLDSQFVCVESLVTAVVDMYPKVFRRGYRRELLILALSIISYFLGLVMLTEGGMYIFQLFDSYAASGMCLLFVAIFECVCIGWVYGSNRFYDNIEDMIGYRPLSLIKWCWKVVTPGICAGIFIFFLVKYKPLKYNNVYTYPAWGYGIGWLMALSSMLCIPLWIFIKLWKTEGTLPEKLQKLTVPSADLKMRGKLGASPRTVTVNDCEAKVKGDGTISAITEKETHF
As to the kind of experiment: [3H]GABA uptake inhibition, stable CHO cells. Details: gene Slc6a11; RIKEN FANTOM cDNA in pcDNA3; no tag mentioned.

In a further experiment the target is T3, rSERT (Rattus norvegicus, UniProt P31652).
T3 construct: gene Slc6a4; previously cloned cDNA; no tag mentioned
Nature of the experiment: [3H]5-HT uptake inhibition, stable CHO cells.

Each structure is given as a SMILES string.

T3 sequence (P31652 whole entry): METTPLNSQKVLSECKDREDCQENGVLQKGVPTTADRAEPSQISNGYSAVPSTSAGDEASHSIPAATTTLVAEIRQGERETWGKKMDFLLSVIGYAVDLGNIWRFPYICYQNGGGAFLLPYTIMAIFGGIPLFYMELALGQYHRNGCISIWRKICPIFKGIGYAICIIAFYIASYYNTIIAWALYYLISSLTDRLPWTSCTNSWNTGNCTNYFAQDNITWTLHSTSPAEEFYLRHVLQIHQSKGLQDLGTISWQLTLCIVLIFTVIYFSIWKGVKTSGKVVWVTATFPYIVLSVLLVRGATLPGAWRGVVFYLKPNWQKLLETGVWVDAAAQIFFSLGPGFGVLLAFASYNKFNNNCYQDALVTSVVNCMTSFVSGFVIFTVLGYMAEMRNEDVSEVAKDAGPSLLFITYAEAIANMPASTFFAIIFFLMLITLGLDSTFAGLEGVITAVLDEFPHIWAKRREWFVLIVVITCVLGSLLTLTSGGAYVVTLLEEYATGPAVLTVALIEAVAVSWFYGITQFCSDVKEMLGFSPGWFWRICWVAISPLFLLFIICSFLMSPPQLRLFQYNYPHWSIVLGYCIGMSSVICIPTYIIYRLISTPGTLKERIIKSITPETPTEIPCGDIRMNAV

As to `CN(C)CCCN1c2ccccc2CCc2ccc(Cl)cc21` [Clomipramine], the IC50 worked out at 93.3 ± 39.8 µM on mGAT1, 41.8 µM at mGAT2 and 40.2 µM against mGAT3.

Turning to `CN1CCN2c3ccccc3Cc3ccccc3C2C1` (stereo not shown) [Mianserine], the values for the IC50 at mGAT1, against mGAT2 and at mGAT3 were 222 ± 9.9 µM, 131 µM and 91 µM, respectively.

With `CNCCCC12CCC(c3ccccc31)c1ccccc12` [Maprotilline], the values for the IC50 against mGAT1, at mGAT2 and against mGAT3 were 124 ± 8.4 µM, 98 µM and 106 µM, respectively.

`Clc1ccc2c(c1)C(N1CCNCC1)=Nc1ccccc1O2` [Amoxapine]: the concentration for half-maximal inhibition (IC50) was 1.62 µM against rSERT, 288 ± 80.5 µM on mGAT1, 135 µM on mGAT2 and 195 µM at mGAT3.

Take `CN(C)CCC=C1c2ccccc2COc2ccccc21` [Doxepine]: the half-inhibitory concentration (IC50) at mGAT1 worked out at 222 ± 14.7 µM; against mGAT2 it was 129 µM; at mGAT3, 115 µM.

What is called IC50 is the concentration that inhibits the measured activity by half.
